# Data published in PMC4336329 (PLoS ONE, 2015).
# The campaign covered roughly 310,000 compounds. About 14,000 (4.5%) showed an effect of 50% or more. The effect is printed as a negative number. The list shows a part of the results.
# Biological target: human ether-à-go-go-related gene (hERG) potassium channel (human, UniProt Q12809)
# Assay: primary screen, population patch clamp on CHO cells stably expressing hERG
# 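Also: peak tail current of the secondary pulse compared with the same well before compound.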
# Chain of human ether-à-go-go-related gene (hERG) potassium channel (Q12809 whole entry, looked up): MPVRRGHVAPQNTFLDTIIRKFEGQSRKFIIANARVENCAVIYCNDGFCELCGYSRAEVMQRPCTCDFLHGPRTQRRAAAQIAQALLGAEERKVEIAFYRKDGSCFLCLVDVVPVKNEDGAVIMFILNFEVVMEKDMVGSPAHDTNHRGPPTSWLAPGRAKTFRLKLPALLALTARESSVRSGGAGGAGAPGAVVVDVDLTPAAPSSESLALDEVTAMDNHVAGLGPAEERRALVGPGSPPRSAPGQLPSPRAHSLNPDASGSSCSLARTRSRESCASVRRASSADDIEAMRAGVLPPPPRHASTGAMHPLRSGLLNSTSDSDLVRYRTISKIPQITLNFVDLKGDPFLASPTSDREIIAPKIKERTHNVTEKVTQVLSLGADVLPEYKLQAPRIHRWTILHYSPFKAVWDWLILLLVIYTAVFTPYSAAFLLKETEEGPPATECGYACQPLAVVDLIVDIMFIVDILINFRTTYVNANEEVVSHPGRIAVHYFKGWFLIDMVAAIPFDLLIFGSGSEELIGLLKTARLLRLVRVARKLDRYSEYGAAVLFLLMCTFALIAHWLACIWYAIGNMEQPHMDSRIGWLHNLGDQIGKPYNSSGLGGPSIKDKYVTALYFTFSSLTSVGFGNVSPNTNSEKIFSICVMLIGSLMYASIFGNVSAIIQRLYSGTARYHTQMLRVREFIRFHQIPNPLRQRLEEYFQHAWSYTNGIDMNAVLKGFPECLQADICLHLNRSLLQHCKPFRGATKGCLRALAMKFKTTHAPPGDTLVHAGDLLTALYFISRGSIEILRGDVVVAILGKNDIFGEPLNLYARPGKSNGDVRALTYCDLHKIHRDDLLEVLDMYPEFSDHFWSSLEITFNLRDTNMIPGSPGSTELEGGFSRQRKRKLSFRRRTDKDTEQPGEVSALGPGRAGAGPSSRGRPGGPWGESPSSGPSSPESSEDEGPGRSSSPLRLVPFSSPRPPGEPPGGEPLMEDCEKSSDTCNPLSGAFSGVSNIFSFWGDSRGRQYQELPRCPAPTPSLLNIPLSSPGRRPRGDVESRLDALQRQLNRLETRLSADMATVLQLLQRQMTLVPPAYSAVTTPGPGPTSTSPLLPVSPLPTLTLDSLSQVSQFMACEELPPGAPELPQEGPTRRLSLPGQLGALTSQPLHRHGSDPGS
row,SMILES,"hERG current change (%, negative = inhibition) at 10uM [%]"
1,COc1ccc(S(=O)(=O)Cc2ccc(C(=O)NCCCN3CCc4ccccc4C3)o2)cc1,-51.2
2,Cc1ccc(Cl)c2sc(NC(=O)C3CC3)nc12,5.85
3,CCn1c(/C=C/c2cccc([N+](=O)[O-])c2)nc2ccccc2c1=O,7.29
4,COC(=O)c1ccc(C(=O)Nc2ccc3nc(-c4cccnc4)[nH]c3c2)cc1,14.9
5,O=C(CNC(=O)c1ccco1)Nc1cccc(Cl)c1,-10.8
6,COc1ccc(Cl)cc1C(=O)Nc1ccc2c(c1)OCCO2,11
7,CCn1cc(C(=O)O)c(=O)c2cc(F)c(N3CCNCC3)cc21,3.07
8,Cc1nc2c(cnn2-c2ccccc2Cl)c(=O)n1-c1ccc(N2CCC(C)CC2)cc1,13.5
9,COc1ccc(NC(=O)CSc2nc3ccccc3c(=O)n2CCCO)cn1,-47.8
10,CCOc1ccccc1CN1CCN(Cc2ccc(C)o2)C(CCO)C1 (centres unmarked),-12.9
11,NC(=O)CSc1nnc(-c2ccncc2)o1,16.7
12,CN1CCN(c2ccc(NC(=O)c3ccc([N+](=O)[O-])o3)cc2Cl)CC1,-57.3
13,CC(=O)Oc1ccccc1-c1nc(C)nc(N(C)C(C)=O)n1,3.81
14,Cc1ccc(NC(=O)Nc2ccc(F)cc2)nc1,-6.78
15,CCCCCCC(=O)c1c(C)[nH]c(C(=O)OCC)c1C,13.5
16,C=CCOc1nc2c(c(=O)n(C)c(=O)n2C)n1Cc1ccccc1,-16.6
17,COCCNC(=O)CSc1ncnc2sccc12,23.9
18,Cc1ccc(C)c(Cn2c(C(C)O)nc3ccccc32)c1 (centres unmarked),3.5
19,O=C(Cc1ccc([N+](=O)[O-])cc1)N1N=C2CCCCC2C1(O)C(F)(F)F (centres unmarked),-19.7
20,CCOc1ccccc1C(=O)NCC(=O)NCC1CCCCC1,12.2
21,Cc1cccc(/C(N)=N/OC(=O)Cc2ccccc2)c1,37.9
22,COc1ccc(CN(C)C(=O)c2ccc(OCC(=O)N3CCOCC3)c(OC)c2)cc1,2.93
23,CN(C)C1=NP(N(C)C)(N(C)C)=NC(c2ccccc2)=N1,-8.47
24,CCOc1cc(NC(=S)NCC(C)C)c(OCC)cc1NC(=O)c1ccco1,10.4
25,COc1ccc(CN2C(=O)CCC2(C)C(=O)NC2CCCCCC2)cc1 (centres unmarked),-13.8
26,Cc1cc(C)c2[nH]c(C)c(CN3CCCCCC3)c(=O)c2c1,-14.6
